Experimental findings from the supplement of paper PMC4723716 are described below.

± gives the uncertainty stated by the source. Over roughly 9,900 compounds, “viability index relative to DMSO control” has its median near 1; the lowest 2% begin near 0.85. This is one part of the list.

The assay deals with Plasmodium falciparum NF54 stage V gametocytes. As to the kind of experiment: viability index relative to DMSO control (fraction); higher = less gametocyte killing. Conditions: 2.5 µM, library set: Broad Institute DOS, incubation time: 72 h. Put shortly: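 Compound at 2.5 µM was incubated for 72 hr at 37°C under low oxygen with P. falciparum NF54 stage V gametocytes (0.75% gametocytemia, 1.25% hematocrit, 10 µl, serum-free screening medium) in 1,536-well plates. Staining used 3 µl of 2.5 µM MitoTracker Red CMXRos plus 0.13% saponin for one to two hours, and red particles of 20–70 µm2 were counted in one imaged field per well. Each viability index is that count relative to the plate mean of solvent-only wells.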
As for `O=C(C[C@H]1CC[C@@H](NS(=O)(=O)c2ccc(F)cc2)[C@H](CO)O1)N1CCN(c2ccccc2)CC1`, the viability index turned out to be 1.09 ± 0.12. Under `O=C(O)C[C@@H]1C[C@H]2c3cc(NC(=O)Nc4ccc(C(F)(F)F)cc4)ccc3O[C@H]2[C@H](CO)O1` stands 1.11 ± 0.052. Under `COc1ccc2c3c([nH]c2c1)[C@H](CO)N(C[C@]31CCN(CC1)C(=O)Cc1ccncc1)C(=O)Nc1ccc(F)cc1` stands 0.993 ± 0.069. Then `Cc1ccccc1-c1ccc([C@@H]2[C@H]3CN(S(C)(=O)=O)CC(=O)N3[C@H]2CO)cc1`, with 1.118 ± 0.007. In the case of `O=C(C[C@@H]1CC[C@@H](NC(=O)c2ccc3c(c2)OCO3)[C@@H](CO)O1)NCc1ccc(Oc2ccccc2)cc1`, the viability index amounted to 1.06 ± 0.069.

Consider `C[C@@H]1CCCCO[C@@H](CN(C)C(=O)NC2CCCCC2)[C@@H](C)CN([C@@H](C)CO)C(=O)c2cc(N(C)C)ccc2O1`, for which the viability index was found to be 1.14 ± 0.038.

`COc1cccc(-c2ccc([C@H]3[C@@H]4CN(S(=O)(=O)c5cn(C)cn5)C[C@H]3N4)cc2)c1` had a viability index of 1.05 ± 0.015. Then `CNC(=O)C[C@H]1CC[C@@H]2[C@@H](COc3ccc(NC(=O)c4ccccc4F)cc3C(=O)N2C)O1`, with 1.14 ± 0.14; and `COC(=O)C[C@@H]1CC[C@H]2[C@H](COc3ccc(NC(=O)Nc4c(C)noc4C)cc3C(=O)N2C)O1`, with 0.994 ± 0.12. Under `N#C[C@@H]1[C@H](c2ccccc2)[C@H](CO)N1C(=O)c1ccc2c(c1)OCO2` stands 1.03 ± 0.039; under `CS(=O)(=O)Nc1ccc2c(c1)[C@H]1C[C@H](CC(=O)NCc3cc(F)ccc3F)O[C@@H](CO)[C@H]1O2`, 1.077 ± 0.0009. Under `C[C@H](NC(=O)C[C@@H]1C=C[C@H](NC(=O)c2cccnc2)[C@@H](CO)O1)c1ccccc1` stands 1.098 ± 0.0088; under `C/C=C/c1cnc2c(c1)C(=O)N([C@@H](C)CO)C[C@@H](C)[C@H](CN(C)CC1CCOCC1)O2`, 0.943 ± 0.028; under `CCCNC(=O)N(C)C[C@@H]1Oc2ncc(C#CC3CCCCC3)cc2C(=O)N([C@H](C)CO)C[C@@H]1C`, 0.96 ± 0.088. For `C[C@H](CO)N1C[C@H](C)[C@@H](CN(C)Cc2ccccc2C(=O)O)Oc2cc(-c3ccc(F)cc3)ccc2S1(=O)=O`, the viability index stood at 0.989 ± 0.089. Take `O=C(NCC[C@H]1CC[C@@H](NS(=O)(=O)c2ccc(F)cc2)[C@@H](CO)O1)c1ccc2c(c1)OCO2`: the viability index is 0.9435 ± 0.0062. Then `CO[C@H](C(=O)N(C)C[C@H]1OCc2ccccc2-c2ccccc2C(=O)N([C@@H](C)CO)C[C@@H]1C)c1ccccc1`, with 0.98 ± 0.046; and `O=C(Nc1ccccc1F)N1C[C@H]2[C@@H](c3ccccc31)[C@H](CO)N2C(=O)Cc1cccnc1`, with 1.02 ± 0.081. `CCCNC(=O)N1C[C@@]2(C1)CN([C@H](CO)c1[nH]c3cc(OC)ccc3c21)C(=O)c1ccccc1`: the viability index was determined as 1 ± 0.014. Regarding `C[C@@H]1CN([C@@H](C)CO)C(=O)c2cccc(NC(=O)C3CCOCC3)c2O[C@@H]1CN(C)C(=O)Nc1cccc2ccccc12`, the viability index came out at 0.974 ± 0.06.
